Test results as given in PubChem BioAssay AID894 (National Center for Advancing Translational Sciences (NCATS), 2007).
Hit rate of the full screen: of about 150,000 compounds, about 6,500 (4.3%) were called active. Inconclusive results, whose numbers are uncertain, are shown with a selection of clear calls. Calls follow the shape of the dose curve; as a rule, active = well fitted inhibition curve with a large enough effect (not every such curve was filed as active); inconclusive = small, poorly fitted or top-dose-only effect, or another doubt; inactive = no such curve, though single readings can be large or run the other way. No potency is given beside an inconclusive call; the fits are too rough.

molecular target: 15-hydroxyprostaglandin dehydrogenase [NAD(+)] (Homo sapiens) (UniProt P15428); test: qHTS Assay for Inhibitors of HPGD (15-Hydroxyprostaglandin Dehydrogenase); conditions: purified HPGD, NADH fluorescence kinetic, PGE2 substrate; activity change, negative = inhibition: active compounds read low
Sequence of UniProt P15428 (P15428 whole entry, looked up): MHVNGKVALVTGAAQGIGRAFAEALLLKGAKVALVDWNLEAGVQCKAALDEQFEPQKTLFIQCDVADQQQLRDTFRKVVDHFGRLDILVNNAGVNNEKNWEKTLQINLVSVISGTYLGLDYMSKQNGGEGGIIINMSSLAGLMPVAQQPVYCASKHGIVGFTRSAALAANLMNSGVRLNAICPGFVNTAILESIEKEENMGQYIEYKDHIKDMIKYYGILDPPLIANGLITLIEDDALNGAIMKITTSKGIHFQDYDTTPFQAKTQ
Excerpt: Human 15-Hydroxyprostaglandin dehydrogenase (HPGD) catalyzes the inactivation of prostaglandin E2, and plays a major role in cancer biology by antagonizing the oncogenic potential of cyclooxygenase type 2 (COX2). Assays are available, based on absorbance/fluorescence increase of NADH with the substrate 15-OH prostaglandin E2. References 1. Myung SJ, Rerko RM, Yan M, Platzer P, Guda K, Dotson A, Lawrence E, Dannenberg AJ, Lovgren AK, Luo G, Pretlow TP, Newman RA, Willis J, Dawson D, Markowitz SD. 15-Hydroxyprostaglandin dehydrogenase is an in vivo suppressor of colon tumorigenesis. […] 2. Yan M, Rerko RM, Platzer P, Dawson D, Willis J, Tong M, Lawrence E, Lutterbaugh J, Lu S, Willson JK, Luo G, Hensold J, Tai HH, Wilson K, Markowitz SD. 15-Hydroxyprostaglandin dehydrogenase, a COX-2 oncogene antagonist, is a TGF-beta-induced suppressor of human gastrointestinal cancers. Proc Natl Acad Sci U S A. 2004 Dec 14;101(50):17468-73. 3. Yang L, Amann JM, Kikuchi T, Porta R, Guix M, Gonzalez A, Park KH, Billheimer D, Arteaga CL, Tai HH, Dubois R, Carbone DP, Johnson DH. Inhibition of Epidermal Growth Factor Receptor Signaling Elevates 15-Hydroxyprostaglandin Dehydrogenase in Non-Small-Cell Lung Cancer. Cancer Res. 2007 Jun 15;67(12):5587-5593. Inhibition of HPGD activity was screened by utilizing prostaglandin as an electron donor and NAD+ as an electron acceptor/cofactor. An increase in the fluorescence intensity due to conversion of NAD+ to NADH was used to measure the enzyme activity. NIH Chemical Genomics Center [NCGC] Structural Genomics Consortium [SGC]
Buffer: 50 mM Tris-HCl, 0.01% Tween 20, pH 8. Enzyme Buffer: 50 mM Tris-HCl, 0.5 mM NAD+ and 0.01% Tween 20, pH 8. Reagents/Controls: Buffer in columns 3 and 4 as negative control (no enzyme). Substrate/cofactor solution: 1 mM NAD+ and 30 uM prostaglandin (Sigma, prostaglandin E2, # P5640) final concentrations dispensed throughout the plate. Enzyme: 20 nM HPGD final concentration in columns 1, 2, 5-48. Column 1 and 2 is neutral (100% activity). A titration of control inhibitor GW5074 (G6416 Sigma-Aldrich, St. Louis, MO) top concentration 10 mM in DMSO, then 1:2 dilution for a total of 16 concentrations in duplicate) was pin-transferred into column 2. Assay Steps: Three uL of enzyme were dispensed to 1536-well Greiner black solid bottom plates. Compounds and control inhibitor (23 nL) were transferred via Kalypsys PinTool. The plates were incubated for 15 min at room temperature, and then 1 uL of substrate/cofactor solution was added to start the reaction. The plates were immediately transferred to and read 5 times every 30 seconds on ViewLux High-throughput CCD imager (Perkin-Elmer) using 360 nm excitation and 450 nm emission fluorescence protocol. The fluorescence intensity difference between the last and the first time points was used to compute reaction progress.
% is scaled to controls: 0 for no effect and ±100 for the full control effect; potency is read from the fitted curve at half-maximal effect; tags tell the direction and shape of the fitted curve.

Row | Compound | Potency | activity change, negative = inhibition
1 | Cc1ccc2nc(-c3ccccc3O)c(Nc3ccc4c(c3)OCCO4)n2c1 | inconclusive [inhibitor, single point] | –
2 | C=C(Cl)COc1ccc2c(CC)cc(=O)oc2c1 | inconclusive [inhibitor, partial curve] | –
3 | CCOc1cc(C2C(C(=O)c3ccc(C)o3)=C(O)C(=O)N2CCc2ccccc2)ccc1O (configuration not stated) | – | inactive: -11.8%
4 | O=C1NC(=S)SC1=C1CCCCCC1 | active: 11.2 µM | –
5 | O=c1[nH]c2cc3c(cc2cc1CN(CCO)S(=O)(=O)c1ccccc1Cl)OCCO3 | inconclusive [inhibitor, partial curve] | –
6 | Cn1cccc1/C=C1\SC(=S)N(NC(=O)c2ccc(Cl)cc2)C1=O | – | inactive: -8.93%
7 | Cc1onc(-c2ccccc2Cl)c1C(=O)Nc1cccc(-c2cn3cccnc3n2)c1 | inconclusive [inhibitor, partial curve] | –
8 | N#CC1=C(Nc2ccccc2)SC=C(c2ccc(Cl)c(Cl)c2)N=C1N1CCOCC1 | – | inactive: -6.79%
9 | O=C(NCc1cccnc1)c1sc2cc(Cl)ccc2c1Cl | inconclusive [inhibitor, single point] | –
10 | O=C(Cc1cccs1)NCc1ccco1 | inconclusive [inhibitor, single point] | –
11 | C=CCC(C)(O)c1cccc(Br)c1 (configuration not stated) | – | inactive: -2.06%
12 | O=C(NCc1cccs1)Nc1cccs1 | inconclusive [inhibitor, partial curve] | –
13 | CCC(C)N1CCCCC1C(=O)Nc1c(C)cc(C)cc1C (configuration not stated) | – | inactive: -14%
14 | Cc1ccc(S(=O)(=O)Nc2ccc(C(=O)Nc3ccncc3)cc2)cc1 | inconclusive [inhibitor, partial curve] | –
15 | CC(C)(C)NC(=O)c1cccc2c1OC(C)(C)C2 | – | inactive: -12%
16 | O=C(Nc1cccc(S(=O)(=O)c2cccc(NC(=O)C3CC3)c2)c1)C1CC1 | inconclusive [inhibitor, partial curve] | –
17 | Cc1nc(SCC(=O)Nn2c(-c3ccccc3)nc3ccccc3c2=O)n[nH]1 | – | inactive: -1.24%
18 | CCOc1c(Cl)cc(C(=O)Nc2ccccc2-c2ccccc2)cc1Cl | inconclusive [inhibitor, single point] | –
19 | Cc1nn(Cc2ccc(C(=O)Nc3nc4c(C)cccc4s3)o2)c(C)c1Br | inconclusive [inhibitor, partial curve] | –
20 | Cn1c(=O)oc2cc(S(=O)(=O)N3CCCC(C(=O)N4CC=C(c5ccccc5)CC4)C3)ccc21 (configuration not stated) | active: 14.1 µM | –
21 | c1cc(OCC2CO2)cc(OCC2CO2)c1 (configuration not stated) | – | inactive: -13.3%
22 | C=CCn1c(N)c(S(=O)(=O)c2cccs2)c2nc3ccccc3nc21 | inconclusive [inhibitor, partial curve] | –
23 | COc1ccccc1NC(=S)NNC(=O)c1nn(C)c(C)c1Br | – | inactive: -11%
24 | CCOCCCNC(=O)/C(C#N)=C/c1ccc(-c2ccc(S(=O)(=O)N3CCOCC3)cc2)o1 | inconclusive [inhibitor, partial curve] | –

Row | Compound | Potency | activity change, negative = inhibition
25 | COc1ccc(OC)c(NC(=O)c2cc(-c3ccc(C)cc3O)n[nH]2)c1 | – | inactive: -11.8%
26 | CCOc1c(Br)cc(C(N)=O)cc1OCc1ccccc1 | – | inactive: -23.7%
27 | S=C(Nc1ccccc1Cl)N(CCN1CCCCC1)Cc1ccco1 | – | inactive: -7.54%
28 | CC12CCC3c4ccc(OCc5ccccc5)cc4CCC3C1CC(O)C2O (configuration not stated) | – | inactive: -4.36%
29 | C=CCn1c(SCC#N)nc2c(c1=O)C(C)(C)Cc1ccccc1-2 | – | inactive: -1.06%
30 | O=C(Nc1ccc(Cl)cc1)Nc1cc(S(=O)(=O)N2CCOCC2)ccc1N1CCCC1 | inconclusive [inhibitor, single point] | –
31 | COc1cc(-c2nc(-c3cccc(C)c3)no2)cc(OC)c1OC | inconclusive [inhibitor, partial curve] | –
32 | COCc1cc(=O)[nH]c(Sc2c(-c3ccccc3)c3ccc(Cl)cc3[nH]c2=O)n1 | – | inactive: -8.08%
33 | CC(C)C[C@@H](CC(=O)N[C@@H](CCC(=O)O)CC(=O)O)NC(=O)[C@@H]1CCCC[C@H]1NC(=O)C[C@@H](NC(=O)C[C@H](CO)NC(=O)[C@@H]1CNCC[C@H]1N)C(C)C | – | inactive: -6.6%
34 | CC1=NN(C(=O)COc2ccc(C)c(C)c2)C(O)(c2ccccc2)C1 (configuration not stated) | – | inactive: -13.9%
35 | COc1ccc(C2CC(c3cccs3)=NN2c2nc(-c3ccccc3)cs2)cc1OC (configuration not stated) | inconclusive [inhibitor, single point] | –
36 | C=COCCNC(=O)Nc1ccc(Cl)c(Cl)c1 | active: 20 µM | –
37 | CCOC(=O)Nc1ccc2c(CN3CCN(S(=O)(=O)c4ccccc4)CC3)cc(=O)oc2c1 | inconclusive [inhibitor, partial curve] | –
38 | COc1ccc(OC)c(-c2cc(C(=O)N3CCCc4ccccc43)no2)c1 | inconclusive [inhibitor, partial curve] | –
39 | Cc1cc(-c2ccc(N3C(=O)CCC3=O)c(C)c2)ccc1N1C(=O)CCC1=O | inconclusive [inhibitor, single point] | –
40 | CN1CCN(S(=O)(=O)c2ccc(NC(=O)C3CCCCC3)cc2)CC1 | – | inactive: -3.4%
41 | Fc1ccc(Cc2nnc(-c3cccs3)o2)cc1 | inconclusive [inhibitor, partial curve] | –
42 | O=C(Nc1ccccc1)/C(=C/c1ccccc1)c1ccccc1 | inconclusive [inhibitor, partial curve] | –
43 | Cc1[nH]nc2c1-c1nc3ccccc3nc1C(C)(C)C2 | inconclusive [inhibitor, partial curve] | –
44 | O=C(Nc1nc(-c2cccs2)cs1)c1cccc(S(=O)(=O)N2CCCCC2)c1 | – | inactive: -13.8%
45 | Cc1ccc(N2CC(C(=O)OCc3ccccc3F)CC2=O)cc1 (configuration not stated) | inconclusive [inhibitor, single point] | –
46 | CCOc1ccc(CC(=O)N2CCN(c3ccc(N4CCOCC4)nn3)CC2)cc1OCC | inconclusive [inhibitor, partial curve] | –
47 | CC(C)Cn1cc(C(=O)NCCCOC(C)C)c2c3ccccc3n(C)c2c1=O | inconclusive [inhibitor, partial curve] | –
48 | COc1cccc(/C=N/n2c(-c3n[nH]c4c3CCC4)n[nH]c2=S)c1O | inconclusive [inhibitor, partial curve] | –

Row | Compound | Potency | activity change, negative = inhibition
49 | CCC(=O)Nc1cccc2c1C(=O)N(C)C2=O | inconclusive [inhibitor, partial curve] | –
50 | COC(=O)c1ccccc1NC(=O)CN1C(=O)c2ccccc2S1(=O)=O | – | inactive: -4.65%
51 | O=C(Nc1ccc2c(c1)oc1ccccc12)c1ccncc1 | inconclusive [inhibitor, single point] | –
52 | Cc1ccnc(N2CCC(C(=O)Nc3nnc(C)s3)CC2)n1 | inconclusive [inhibitor, single point] | –
53 | CCCCC(=O)c1c(O)c2ccccc2oc1=O | – | inactive: -15.9%
54 | Cc1ccc(C(=O)CSc2nnc(-c3ccc4[nH]c(C)c(C)c4c3)o2)cc1C | – | inactive: -7.51%
55 | Cn1c(Cn2c(=O)sc3ccccc32)nnc1SCC(=O)N1CCCC1 | – | inactive: -6.36%
56 | CCOc1cc(-c2nc3ccccn3c2NCC2CCCO2)ccc1O (configuration not stated) | inconclusive [inhibitor, partial curve] | –
57 | O=C1OCCC1Sc1nnc(-c2ccc(O)cc2)o1 (configuration not stated) | inconclusive [inhibitor, partial curve] | –
58 | Cc1ccc(CNC(=O)c2ccc(COc3ccccc3)cc2)cc1 | – | inactive: -0.741%
59 | NC(=O)Cn1c(=O)oc2ccccc21 | inconclusive [inhibitor, single point] | –
60 | CCOc1ccc(S(=O)(=O)Nc2ccccn2)c2ccccc12 | inconclusive [inhibitor, partial curve] | –
61 | CN(Cc1ccccc1)C(=O)c1cc2ccccc2o1 | inconclusive [inhibitor, partial curve] | –
62 | COc1cc2c(cc1OC)-c1cc(NC3CCCCCC3)nc(=O)n1CC2 | inconclusive [inhibitor, single point] | –
63 | CC1(C)Nc2ccc(O)cc2-c2c1ssc2=S | inconclusive [inhibitor, single point] | –
64 | COc1ccc(C(=O)Nc2cccc3c2C(=O)NC3=O)cc1S(=O)(=O)N1CCOCC1 | inconclusive [inhibitor, partial curve] | –
65 | Cc1ccc(C(=O)n2nc(-c3ccco3)nc2N)cc1 | inconclusive [inhibitor, partial curve] | –
66 | O=C(CC1Sc2ccccc2NC1=O)Nc1cccc(-c2nnc3n2CCCCC3)c1 (configuration not stated) | active: 31.6 µM | –
67 | COC(=O)c1c(C(=O)NCc2ccccc2)ncn1CC(O)COc1ccccc1 (configuration not stated) | – | inactive: -8.77%
68 | COc1ccc(S(=O)(=O)N(CCc2ccccc2)CC(=O)N/N=C/c2ccc3c(c2)OCO3)cc1 | active: 22.4 µM | –
69 | CCn1c(SCC(=O)C(C)(C)C)nnc1-c1ccccc1OC | inconclusive [inhibitor, single point] | –
70 | CCCn1c(-c2ccc(F)cc2)nc2c(NCCN(C(C)C)C(C)C)nc(C)nc21 | – | inactive: -28.5%
71 | C/C(=N/OCC(=O)Nc1ccc(C)cc1C)c1cccs1 | active: 7.94 µM | –
72 | CC(C)c1ccc2c(c1)C1Cc3ccccc3C1N2 (configuration not stated) | inconclusive [inhibitor, partial curve] | –
